In PubChem BioAssay AID1476 (National Center for Advancing Translational Sciences (NCATS), 2009):
The campaign covered roughly 200,000 compounds. About 4,500 (2.2%) were called active. The shares of active, inactive and inconclusive entries below differ from those in the screen. Calls follow the shape of the dose curve; as a rule, active = well fitted inhibition curve with a large enough effect; inconclusive = small, poorly fitted or top-dose-only effect, or effect the other way; inactive = flat fitted curve, though single readings scatter. Potencies of inconclusive entries are doubtful fits and often do not repeat.

target: Cruzipain (Trypanosoma cruzi) (UniProt P25779); assay: qHTS Assay for Promiscuous and Specific Inhibitors of Cruzain (without detergent); conditions: purified cruzain, Z-FR-AMC fluorescence, no detergent; also: nearly all actives have a fitted effect of over 40% in size;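 as to max response, negative = inhibition: plate controls were enzyme without inhibitor for no effect and buffer without enzyme for full effect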
UniProt P25779, sequence (P25779 whole entry, looked up): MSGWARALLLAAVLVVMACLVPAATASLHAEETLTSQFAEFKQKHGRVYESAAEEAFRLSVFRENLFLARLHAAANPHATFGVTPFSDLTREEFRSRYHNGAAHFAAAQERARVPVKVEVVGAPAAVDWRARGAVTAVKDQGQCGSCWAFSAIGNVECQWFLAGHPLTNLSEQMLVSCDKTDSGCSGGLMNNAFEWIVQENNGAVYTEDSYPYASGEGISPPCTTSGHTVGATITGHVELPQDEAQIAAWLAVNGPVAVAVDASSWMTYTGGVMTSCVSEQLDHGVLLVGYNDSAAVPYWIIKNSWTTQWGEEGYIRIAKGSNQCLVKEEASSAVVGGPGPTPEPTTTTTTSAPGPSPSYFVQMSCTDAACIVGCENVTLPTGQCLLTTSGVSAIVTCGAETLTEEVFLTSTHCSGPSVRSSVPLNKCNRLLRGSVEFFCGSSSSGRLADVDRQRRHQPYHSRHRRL
Summary of the method: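 Detergent-free condition (0.00005% Triton X-100) in acetate buffer pH 5.5 with DTT. 1.5 nM enzyme and compound were pre-mixed 15 min, then 2 uM Z-FR-AMC substrate added; reaction progress from fluorescence change between first and third reads (60 s).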
Potency is read from the fitted curve at half-maximal effect; tags tell the direction and shape of the fitted curve.

SMILES | Potency | max response, negative = inhibition
CC(=O)N1CCc2cc(S(=O)(=O)N3c4ccccc4CC3C)ccc21 (stereo not given) | inconclusive: 39.8 µM [activator, single point] | –
Cc1nn(CC(=O)Nc2nc3ccccc3s2)c(C)c1[N+](=O)[O-] | – | inactive: -6.47%
CCN(CC(=O)Nc1ccccc1OC)C(=O)COc1ccc2ccccc2c1 | inconclusive: 39.8 µM [activator, single point] | –
COC(=O)CCC(NC(=O)c1cc(C)oc1C)C(=O)OC (stereo not given) | – | inactive: 11.8%
COc1ccc(S(=O)(=O)N2CCN(S(=O)(=O)c3ccc(C(F)(F)F)cc3)CC2)cc1C | inconclusive: 39.8 µM [inhibitor, single point] | –
O=C(Oc1ccc(-c2nc(-c3ccccn3)no2)cc1)c1ccccc1 | inconclusive: 39.8 µM [inhibitor, single point] | –
CCOC(=O)c1sc(-c2ccccc2)cc1N | – | inactive: -8.34%
NC(=O)C1CCN(C(=O)c2ccc3c(c2)N(Cc2cccc(Cl)c2)C(=O)c2ccccc2S3(=O)=O)CC1 | inconclusive: 39.8 µM [activator, single point] | –
COC(=O)c1c(-c2cccs2)csc1NC(=O)c1ccc(C(C)(C)C)cc1 | inconclusive: 3.16 µM [inhibitor, full curve, poor fit] | –
CSc1ccc(C2c3[nH]c4ccccc4c3CCN2C(=O)CCC2CCCC2)cc1 (stereo not given) | active: 10 µM | –
CC(C)(C)CC(C)(C)NC(=S)Nc1ccc2nc(-c3ccccn3)c(-c3ccccn3)nc2c1 | inconclusive: 25.1 µM [activator, partial curve] | –
COc1ccc(-c2nnc(SCC(=O)c3ccc(NC(C)=O)cc3)o2)cc1OC | – | inactive: 6.77%
Cc1ccc2cc(/C=N/Nc3nc4ccccc4[nH]3)c(Cl)nc2c1 | inconclusive: 31.6 µM [inhibitor, single point] | –
CCOc1[nH]n(-c2ccc(Cl)cc2)c(=O)c1C=Nc1ccc(O)cc1 | inconclusive: 12.6 µM [inhibitor, partial curve] | –
O=C(Nc1ccc2nc(SCC(=O)N3CCCC3)sc2c1)c1cccc(F)c1 | inconclusive: 39.8 µM [activator, single point] | –
CC(C)c1ccc(/C=C/C(=O)NC2CCCCC2)cc1 | – | inactive: 8.4%
COc1cccc(-c2cc(C(=O)N3CCN(c4ncccn4)CC3)c3ccccc3n2)c1 | inconclusive: 39.8 µM [activator, single point] | –
COc1ccc(Cl)cc1NC(=O)Cn1nnc(C(=O)NCc2cccs2)c1N | inconclusive: 39.8 µM [inhibitor, single point] | –
N=C(c1ccc2ccccc2c1)c1ccccc1Cc1ccccc1 | – | inactive: -11.7%
CCOc1ccc(CCNC(=O)CN2C(=O)COc3ccc(S(=O)(=O)N(CC)CC)cc32)cc1 | inconclusive: 39.8 µM [activator, single point] | –
COc1ccccc1CNC(=O)C(=O)NCC(c1cccnc1)N1CCN(c2ccc(F)cc2)CC1 (stereo not given) | inconclusive: 31.6 µM [activator, single point] | –
COc1ccc(NC(=O)N2CCN(c3cccc(C(F)(F)F)c3)CC2)cc1OC | inconclusive: 39.8 µM [activator, single point] | –

SMILES | Potency | max response, negative = inhibition
CCOC(=O)Cc1nnc(NC(=O)C(CC)Sc2nnc3c4ccccc4n(C)c3n2)s1 (stereo not given) | inconclusive: 31.6 µM [activator, single point] | –
C=Cn1ccnc1P(=S)(c1nccn1C=C)C1CCCCC1 | inconclusive: 39.8 µM [activator, single point] | –
Cc1ccc(C(c2nnnn2C2CCCC2)N2c3ccccc3CC2C)cc1 (stereo not given) | inconclusive: 39.8 µM [inhibitor, single point] | –
Cc1cc(C)cc(OCC(=O)N2N=C(C(F)(F)F)CC2(O)C(C)(C)C)c1 (stereo not given) | inconclusive: 39.8 µM [activator, single point] | –
Cc1ccc(Cl)cc1N1CCN(C(=O)c2cc(S(=O)(=O)N3CCCCC3)cn2C)CC1 | – | inactive: -10.2%
Cc1ccc(C(=O)NC(=S)Nc2cccc(-c3nc4ccccc4s3)c2)cc1 | inconclusive: 25.1 µM [inhibitor, single point] | –
CCc1nnc(NC(=O)c2ccc(OC)cc2OC)s1 | inconclusive: 20 µM [activator, single point] | –
CCOC(=O)c1ccc(N(C(=O)c2cnccn2)C(C(=O)NC2CCCCC2)c2cn(C)nc2C)cc1 (stereo not given) | inconclusive: 31.6 µM [activator, single point] | –
Cc1ccc(/C=C(\CCC(=O)O)c2nc3ccccc3s2)cc1[N+](=O)[O-] | inconclusive: 39.8 µM [activator, single point] | –
CC(Oc1ccc(-c2ccccc2)c(F)c1)c1ccn(S(=O)(=O)c2cccc3ccccc23)n1 (stereo not given) | active: 12.6 µM | –
Cc1ccccc1-c1cc(C(=O)Nc2sc(C(=O)OC(C)C)c(C)c2C#N)c2ccccc2n1 | active: 10 µM | –
CCc1ccc(N2C(=O)c3cc(N4CCOCC4)c([N+](=O)[O-])cc3C2=O)cc1 | inconclusive: 39.8 µM [inhibitor, single point] | –
S=c1sc2c(N3CCN(Cc4ccccc4)CC3)ncnc2n1-c1ccccc1 | inconclusive: 39.8 µM [activator, single point] | –
N#Cc1c2c(c(NCc3ccco3)n3c1nc1ccccc13)CCC2 | inconclusive: 39.8 µM [inhibitor, single point] | –
Cc1ccc(OCc2nn3c(-c4n[nH]c5c4CCC5)nnc3s2)cc1 | – | inactive: -3.23%
O=c1cc(-c2ccccc2)[nH]n1-c1nc2ccccc2s1 | inconclusive: 25.1 µM [inhibitor, single point] | –
Cc1cc(-c2c(C)[nH]n(-c3ccc(Cl)cc3)c2=O)n(-c2ccc(Cl)cc2)n1 | inconclusive: 39.8 µM [activator, single point] | –
CSc1ccc(CCNC(=O)CCc2c(C)nc3c4cccnc4nn3c2C)cc1 | – | inactive: -9.74%
Cc1cccc(N=c2oc3cc(O)ccc3cc2C(N)=O)c1 | inconclusive: 25.1 µM [activator, partial curve] | –
COc1ccccc1C1C(C(C)=O)=C(C)N=c2s/c(=C\c3cc(OC)c(OC)c(OC)c3)c(=O)n21 (stereo not given) | inconclusive: 25.1 µM [activator, partial curve] | –
CC(C)(C)c1cc(NCCCn2ccnc2)n2ncc(-c3ccc(Cl)cc3)c2n1 | inconclusive: 39.8 µM [inhibitor, single point] | –
COC(=O)c1c(-c2ccc(C)cc2)csc1NC(=S)NC(=O)c1cc(OC)cc(OC)c1 | active: 3.98 µM | –

SMILES | Potency | max response, negative = inhibition
CCCNc1oc(-c2cccc3ccccc23)nc1C#N | active: 3.16 µM | –
O=C(Nc1nc2ccccc2n1Cc1ccccc1)c1ccc(COc2ccccc2[N+](=O)[O-])o1 | inconclusive: 10 µM [inhibitor, partial curve, poor fit] | –
CC(CCc1ccccc1)NC(=O)c1ccc(C(=O)NC(C)CCc2ccccc2)cc1 (stereo not given) | active: 25.1 µM | –
CCCCCCOc1ccc(N2C(=O)CC(N3CCC(C(=O)OCC)CC3)C2=O)cc1 (stereo not given) | inconclusive: 31.6 µM [activator, partial curve] | –
Cc1ccc(-n2nc(CO)c(C(=O)NC(C)c3ccccc3)n2)cc1C (stereo not given) | – | inactive: -8.3%
COC(=O)c1sc2ccccc2c1S(=O)(=O)N1CCN(c2ccc(C(C)=O)cc2)CC1 | inconclusive: 3.98 µM [inhibitor, single point] | –
Cc1cccc(N(C(=O)c2ccc(Cl)cc2)C2CS(=O)(=O)CC2OC(=O)c2ccc(Cl)cc2)c1 (stereo not given) | inconclusive: 20 µM [inhibitor, single point] | –
COc1ccc(Cl)cc1C(=O)Nn1c(-c2cccs2)nc2ccccc2c1=O | inconclusive: 25.1 µM [inhibitor, single point] | –
COc1cc(C2CC(=O)N(CC(=O)Nc3ccccc3F)c3ccccc3S2)cc(OC)c1OC (stereo not given) | inconclusive: 39.8 µM [activator, single point] | –
O=C(Nc1cc(Sc2ccccn2)cc([N+](=O)[O-])c1)c1cccc(Cl)c1 | inconclusive: 31.6 µM [inhibitor, single point] | –
COc1cc(/C=C2\CC/C(=C\c3cc(OC)c(OC)c(OC)c3)C2=O)cc(OC)c1OC | inconclusive: 25.1 µM [activator, single point] | –
COc1cccc(-c2cc(C(=O)Nc3cc(C)on3)no2)c1 | – | inactive: -5.44%
O=C(CSc1nnc(-c2ccc(Cl)s2)o1)N1CCc2ccccc21 | inconclusive: 39.8 µM [inhibitor, single point] | –
Cc1ccc(C)c2sc(NC(=O)c3ccc(N4C(=O)CCC4=O)cc3)nc12 | active: 20 µM | –
Cc1cc(C)cc(NC(=S)N2CCN(c3ccc(F)cc3)CC2)c1 | inconclusive: 7.94 µM [inhibitor, single point] | –
O=C(CCCSc1nc2ccccc2[nH]1)Nc1ccccc1 | – | inactive: 2.66%
Cc1ccccc1OCCn1nc(C(=O)O)c2ccccc2c1=O | – | inactive: 16%
O=C(Cn1c(=O)n(Cc2ccco2)c(=O)c2sc3ccccc3c21)Nc1ccccc1C(F)(F)F | – | inactive: 8.04%
Cc1ccc(-c2nc3cc(Cl)ccc3o2)cc1 | inconclusive: 39.8 µM [inhibitor, single point] | –
CC(C)Cn1c(SCc2nnc(-c3cccs3)o2)nc(O)cc1=O | – | inactive: -3.94%
Cc1nc2oc(C(=O)c3ccccc3)c(N)c2c2c1COC(C)(C)C2 | inconclusive: 0.126 µM [inhibitor, single point] | –
